# The other results are listed elsewhere or left out.
# Experiments:
# Test in all cases: glycan array binding signal (z-score within array); higher = stronger binding
# Conditions in all cases: glycan notation: IUPAC condensed, linker removed
# [1] = target: Gal(b1-4)GlcNAc(b1-3)Gal(b1-4)Glc
# In short: (§1)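 The binding signal is a Z-score computed within each array and averaged over linkers. Arrays of the same protein sequence at different concentrations or buffers were also averaged together. Data originate from 3228 arrays in the Consortium for Functional Glycomics database, kept only where the protein sequence was available.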
# [2] = target: Gal(b1-4)GlcNAc(b1-3)Gal(b1-4)GlcNAc
# In short: as §1
# [3] = target: Gal(b1-4)GlcNAc(b1-3)Gal(b1-4)GlcNAc(b1-3)Gal(b1-4)GlcNAc
# In short: as §1
# [4] = target: Gal(b1-4)GlcNAc(b1-3)Gal(b1-4)[Fuc(a1-3)GlcNAc(b1-6)]Gal(b1-4)Glc
# In short: as §1
# [5] = target: Gal(b1-4)GlcNAc(b1-3)Gal(b1-4)[Fuc(a1-3)]GlcNAc(b1-3)Gal(b1-4)[Fuc(a1-3)]GlcNAc
# In short: as §1
# [6] = target: Gal(b1-4)GlcNAc(b1-3)GalNAc
# In short: as §1
# [7] = target: Gal(b1-4)GlcNAc(b1-3)[Gal(b1-4)GlcNAc(b1-6)]Gal(b1-4)GlcNAc
# In short: as §1
# [8] = target: Gal(b1-4)GlcNAc(b1-3)[Gal(b1-4)GlcNAc(b1-6)]GalNAc
# In short: as §1
# [9] = target: Gal(b1-4)GlcNAc(b1-3)[GlcNAc(b1-6)]Gal(b1-4)GlcNAc
# In short: as §1
# [10] = target: Gal(b1-4)GlcNAc(b1-6)Gal(b1-4)GlcNAc
# In short: as §1
# [11] = target: Gal(b1-4)GlcNAc(b1-6)GalNAc
# In short: as §1
# [12] = target: Gal(b1-4)GlcNAc(b1-6)[Gal(b1-3)]GalNAc
# In short: as §1
# Gal(b1-4)GlcNAc6P = target: Gal(b1-4)GlcNAc6P
# In short: as §1
# Gal(b1-6)Gal = target: Gal(b1-6)Gal
# In short: as §1
# Gal3S(b1-3)GalNAc = target: Gal3S(b1-3)GalNAc
# In short: as §1
# Gal3S(b1-3)GlcNAc = target: Gal3S(b1-3)GlcNAc
# In short: as §1
# [13] = target: Gal3S(b1-3)[Fuc(a1-4)]GlcNAc
# In short: as §1
# Gal3S(b1-4)Glc = target: Gal3S(b1-4)Glc
# In short: as §1
# Gal3S(b1-4)Glc6S = target: Gal3S(b1-4)Glc6S
# In short: as §1
# Gal3S(b1-4)GlcNAc = target: Gal3S(b1-4)GlcNAc
# In short: as §1
# Gal3S(b1-4)GlcNAc6S = target: Gal3S(b1-4)GlcNAc6S
# In short: as §1
# [14] = target: Gal3S(b1-4)[Fuc(a1-3)]Glc
# In short: as §1
# [15] = target: Gal3S(b1-4)[Fuc(a1-3)]Glc6S
# In short: as §1
# Gal3S4S(b1-4)GlcNAc = target: Gal3S4S(b1-4)GlcNAc
# In short: as §1
# Gal3S6S(b1-4)GlcNAc = target: Gal3S6S(b1-4)GlcNAc
# In short: as §1
# Gal3S6S(b1-4)GlcNAc6S = target: Gal3S6S(b1-4)GlcNAc6S
# In short: as §1
# Gal4S(b1-4)GlcNAc = target: Gal4S(b1-4)GlcNAc
# In short: as §1
# Gal4S6S(b1-4)GlcNAc = target: Gal4S6S(b1-4)GlcNAc
# In short: as §1
# Gal6P(b1-4)GlcNAc = target: Gal6P(b1-4)GlcNAc
# In short: as §1
# Gal6S(b1-3)GlcNAc = target: Gal6S(b1-3)GlcNAc
# In short: as §1
# Gal6S(b1-3)GlcNAc6S = target: Gal6S(b1-3)GlcNAc6S
# In short: as §1
# Gal6S(b1-4)Glc = target: Gal6S(b1-4)Glc
# In short: as §1
# Gal6S(b1-4)Glc6S = target: Gal6S(b1-4)Glc6S
# In short: as §1
# Gal6S(b1-4)GlcNAc = target: Gal6S(b1-4)GlcNAc
# In short: as §1
# Gal6S(b1-4)GlcNAc6S = target: Gal6S(b1-4)GlcNAc6S
# In short: as §1
# GalNAc(a1-3)Gal = target: GalNAc(a1-3)Gal
# In short: as §1
# GalNAc(a1-3)GalNAc = target: GalNAc(a1-3)GalNAc
# In short: as §1
# [16] = target: GalNAc(a1-3)GalNAc(b1-3)Gal(a1-4)Gal(b1-4)Glc
# In short: as §1
binder,measurement,setting,value
"Strep tagII-anxA1 (Homo sapiens), P04083 (protein) MAMVSEFLKQAWFIENEEQEYVQTVKSSKGGPGSAVSPYPTFNPSSDVAALHKAIMVKGVDEATIIDILTKRNNAQRQQIKAAYLQETGKPLDETLKKALTGHLEEVVLALLKTPAQFDADELRAAMKGLGTDEDTLIEILASRTNKEIRDINRVYREELKRDLAKDITSDTSGDFRNALLSLAKGDRSEDFGVNEDLADSDARALYEAGERRKGTDVNVFNTILTTRSYPQLRRVFQKYTKYSKHDMNKVLDLELKGDIEKCLTAIVKCATSKPAFFAEKLHQAMKGVGTRHKALIRIMVSRSEIDMNDIKAFYQKMYGISLCQAILDETKGDYEKILVALCGGN",glycan array binding signal (z-score),[1],-0.737
same,glycan array binding signal (z-score),[2],-0.748
same,glycan array binding signal (z-score),[3],-0.696
same,glycan array binding signal (z-score),[4],-0.754
same,glycan array binding signal (z-score),[5],-0.493
same,glycan array binding signal (z-score),[6],-0.387
same,glycan array binding signal (z-score),[7],-0.59
same,glycan array binding signal (z-score),[8],-0.015
same,glycan array binding signal (z-score),[9],-0.399
same,glycan array binding signal (z-score),[10],-0.597
same,glycan array binding signal (z-score),[11],-0.511
same,glycan array binding signal (z-score),[12],-0.556
same,glycan array binding signal (z-score),Gal(b1-4)GlcNAc6P,-0.618
same,glycan array binding signal (z-score),Gal(b1-6)Gal,-0.735
same,glycan array binding signal (z-score),Gal3S(b1-3)GalNAc,-0.412
same,glycan array binding signal (z-score),Gal3S(b1-3)GlcNAc,-0.002
same,glycan array binding signal (z-score),[13],-0.165
same,glycan array binding signal (z-score),Gal3S(b1-4)Glc,0.607
same,glycan array binding signal (z-score),Gal3S(b1-4)Glc6S,-0.613
same,glycan array binding signal (z-score),Gal3S(b1-4)GlcNAc,2.08
same,glycan array binding signal (z-score),Gal3S(b1-4)GlcNAc6S,-0.345
same,glycan array binding signal (z-score),[14],1.09
same,glycan array binding signal (z-score),[15],0.105
same,glycan array binding signal (z-score),Gal3S4S(b1-4)GlcNAc,0.589
same,glycan array binding signal (z-score),Gal3S6S(b1-4)GlcNAc,0.386
same,glycan array binding signal (z-score),Gal3S6S(b1-4)GlcNAc6S,-0.647
same,glycan array binding signal (z-score),Gal4S(b1-4)GlcNAc,-0.285
same,glycan array binding signal (z-score),Gal4S6S(b1-4)GlcNAc,-0.739
same,glycan array binding signal (z-score),Gal6P(b1-4)GlcNAc,-0.017
same,glycan array binding signal (z-score),Gal6S(b1-3)GlcNAc,-0.459
same,glycan array binding signal (z-score),Gal6S(b1-3)GlcNAc6S,-0.025
same,glycan array binding signal (z-score),Gal6S(b1-4)Glc,-0.239
same,glycan array binding signal (z-score),Gal6S(b1-4)Glc6S,0.09
same,glycan array binding signal (z-score),Gal6S(b1-4)GlcNAc,-0.428
same,glycan array binding signal (z-score),Gal6S(b1-4)GlcNAc6S,0.918
same,glycan array binding signal (z-score),GalNAc(a1-3)Gal,0.67
same,glycan array binding signal (z-score),GalNAc(a1-3)GalNAc,-0.167
same,glycan array binding signal (z-score),[16],-0.765

# Reference: the supplement of paper PMC8728848
